From the supplement of paper PMC3334620
Whole data set: some 33,000 sequences, median “E-score (-0.5 to 0.5)” near -0.054, cut for the highest 2% near 0.39. Some of the results follow.

biological target: Ylr278c (UniProt Q05854); assay: PBM E-score (8-mer binding enrichment) (E-score (-0.5 to 0.5)); higher = stronger / more preferred TF binding; most listed sequences are background and not binding sites; details: protein concentration: 200 nM; construct: GST-DNA-binding domain
Method in brief: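 Each ungapped eight-base word and its reverse complement, pooled, received an E-score from the Universal PBM Analysis Suite. Underlying scans, normalised with masliner, recorded fluorescent anti-GST bound to GST-tagged yeast transcription factors. These were applied at about 100-200 nM to universal all-10-mer Agilent arrays double-stranded by primer extension.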

Sequence	PBM E-score
ACAGAATC	-0.0982
TATATTAA	0.0108
ACTGCGAC	0.0811
TAACTCGA	-0.0975
AACTTGTC	0.0361
CAGTAGCG	0.0152
CTAGGTAA	-0.185
ACCGCTAG	-0.19
AAACGAGG	-0.129
ACACGTGA	0.00211
ACCGAGGT	0.0807
CGAATAAC	0.0535
GTGTTCAA	-0.0308
GAGCCAGC	-0.0193
CCTCACCG	0.0908
CCCCCGAC	0.228
AAAGCGGC	0.245
CTCTCTTA	-0.169
CGAAGTTA	0.0676
ACTTTAAA	0.21
AGACGTGG	-0.124
AGTGCTCA	-0.307
CAAGCTCA	-0.279
AGCGGTGG	0.132
CGATTATA	0.0463

Sequence	PBM E-score
AAGTCCTC	0.122
AATCCTGT	-0.0674
CTTATGAC	-0.00377
GAATTCGA	0.0907
CGTTATTC	0.037
AGCATGTA	-0.239
GCTGAGAA	-0.179
GGTATACC	0.056
CACCGAGC	0.152
GGGGACCA	-0.0982
AGTGTTCC	0.104
CCATGCAC	-0.134
ACTTTTCC	0.278
ATAGAGAG	-0.283
TGTTGCAA	0.125
TATGAGCA	-0.202
GAGCGGCA	0.207
CAAGCCCC	0.107
CAGTGACA	-0.191
ATATAAAT	0.0912
AACCCAAA	-0.0513
ACTAGCTG	-0.342
CCCGCGAC	0.194
AGTTAGCG	0.0104
CACTTAGA	-0.107

Sequence	PBM E-score
GTAACAGA	0.0062
CGTTACAA	-0.244
GGACTCAA	0.108
ATAACGAG	-0.193
GGAACGCA	0.0937
CTCGTAAA	-0.102
CATGTTTC	0.00321
TGATTGAA	-0.109
AGGCCCGA	0.123
ATTTATCA	0.0798
ACGAAAGA	-0.0168
ATGACGCG	-0.0237
CTCACTTA	-0.183
CGCCCTAG	-0.147
AACTGTCC	0.0441
CACGTGGA	-0.201
TTGAACAA	-0.128
AAAGTGTA	-0.201
TCGCTTAA	0.0282
AGACCGTA	0.0334
CCCGGCAG	0.263
CAAGGATC	-0.102
ACTAGATC	-0.181
ATGCGTGG	-0.281
ACCTAACG	-0.124

Sequence	PBM E-score
ATCCGTGA	0.244
ATCTAAGG	-0.172
GACCTCGA	0.00483
ATTACCAG	-0.0426
ACATCTCA	-0.201
TTCTAGAA	-0.193
ACAACTGG	-0.0905
ACGGGTCC	0.172
ATAAGACG	-0.245
ACCGCGCG	0.282
TATCCTGA	-0.121
GATATCCA	-0.107
ATCAAAAA	0.0906
CGTGACTC	-0.104
CGTCACAC	-0.034
CCCTCCAC	-0.0768
CAGCAGGG	-0.158
AACATTAG	-0.227
TACAAAAA	-0.0414
GCACAGGC	-0.0619
CAGACGGC	0.0112
CGGGCCGC	0.183
AGCAGGCG	0.0223
GACGTTGA	-0.0565
CCCCGACA	0.301

Sequence	PBM E-score
AATTCCGT	0.441
CAATTCAC	0.00819
TGAGCACA	-0.151
ACGTACCT	-0.332
CCTCACGC	-0.0491
ACGCATGA	-0.0973
CGGTGCAA	0.147
TGCCGCAA	0.0796
CTCACCAG	-0.142
ACCAAGTC	0.0334
TATGAGAA	-0.0399
AGGAACAT	-0.391
CTCAGCTA	-0.3
AGAAACTA	-0.18
GATCAATA	-0.151
CGTCCACG	0.0154
CAAGTAGC	-0.305
ATAATTCG	0.00023
CGGGCTAC	0.183
AGCTTTTA	-0.103
CTAACTGA	-0.0127
ACCATGGA	-0.261
GCGTGGAC	0.0561
CGTGTCTA	-0.133
GCGACGCA	-0.0248

Sequence	PBM E-score
TGTACTAA	-0.214
ACGCGAAC	-0.00887
CGAGATAC	0.0945
GAAATACA	-0.00863
GTGGTCAA	-0.275
AAGAAGAG	0.00358
CTCTGGGA	-0.206
AGTCCACC	-0.0582
AGTGGGCA	-0.0901
ACTTTCGC	-0.119
AACCAGGT	-0.21
AGGGCCGC	0.0521
GAAGTTCA	0.0136
AACCGCGC	0.165
AGGTGGAG	-0.0939
CGATGCGA	0.0702
GAAACAAA	0.0247
CTAGCTAG	-0.281
AGACGACC	-0.174
AAAGAAAG	-0.112
AGCGACCT	-0.0488
GCTAGTCC	0.0489
AATTCTCA	-0.13
AATAGCAT	-0.0992
AGCTCTGA	-0.252

Sequence	PBM E-score
ATCGTGGC	-0.257
GGGGATTA	0.175
TGCAAAAA	-0.139
ATTTCTCG	0.242
CCGGTTGA	0.303
GGCTGATA	-0.00703
AGGAGCGC	-0.0703
ACGAGCGG	0.158
GTACGGAC	0.249
GAATTACC	0.127
GGCTGCCC	-0.0143
GCGCCAGC	-0.145
ACAGGGGG	-0.243
AAATGGAT	-0.0669
ATCCCGGA	0.44
CAACCAGC	-0.102
CGAGTATC	0.0505
CGTTTCAG	0.0963
AGCATGAG	-0.208
CATTTACC	-0.0404
CACAGTCA	-0.256
ACGTACCC	-0.044
AATATGTG	-0.0175
CGTCAAAG	-0.172
CCTTATAA	0.0645

Sequence	PBM E-score
TCAGCGGA	0.347
GTGTGGGA	0.0678
CATTCATC	-0.0892
CGAAAACG	-0.0308
CGGATGGA	0.135
GCCTTATA	-0.0924
AATGATCT	-0.216
CCAAAAGC	-0.0745
CAGGCATC	-0.139
AGCATACC	-0.141
AGGATTAT	-0.0518
ACAACTCG	0.0543
ATCGAACC	-0.0557
ACAGTACC	-0.0761
AGAAGCCA	-0.0384
ATGAGGAG	-0.132
CCCGTCAC	0.157
ATCGATGC	0.00684
GACGATAA	-0.00063
CCGACTAG	0.19
AAATTTAT	0.0131
CTTAATGA	-0.128
AGCGGCAT	0.257
GTCCAGGA	-0.32
GCATTTCC	0.227

Sequence	PBM E-score
TTCACCAA	-0.0791
AGTATCAC	-0.0655
GATCTTCC	0.245
AATCACGG	0.231
GTCGTACA	-0.11
ATGCGGAA	0.383
CCACACGG	0.144
AACACTAC	-0.085
CGGCACAG	0.194
GAGATTTA	0.106
AGAATCGC	0.00255
CACTATGC	-0.0508
CCGCGAAA	0.296
AGCCGTGC	-0.00625
ACTTAATA	0.0617
CAAAGCTA	-0.093
ACGCCAAA	-0.139
GGATTGAC	0.0351
GATCGGAC	0.434
